Results: patent publication US20190016800A1 (NANJING LEADS BIOLABS, published 2019)

Molecular target: T1, Human LAG-3 protein (Cat#LA3-5222, Acrobiosystems) (human, UniProt P18627 23-450)
T1 construct: Bought protein; also called recombinant human LAG-3; LAG3 recombinant protein
T1 sequence: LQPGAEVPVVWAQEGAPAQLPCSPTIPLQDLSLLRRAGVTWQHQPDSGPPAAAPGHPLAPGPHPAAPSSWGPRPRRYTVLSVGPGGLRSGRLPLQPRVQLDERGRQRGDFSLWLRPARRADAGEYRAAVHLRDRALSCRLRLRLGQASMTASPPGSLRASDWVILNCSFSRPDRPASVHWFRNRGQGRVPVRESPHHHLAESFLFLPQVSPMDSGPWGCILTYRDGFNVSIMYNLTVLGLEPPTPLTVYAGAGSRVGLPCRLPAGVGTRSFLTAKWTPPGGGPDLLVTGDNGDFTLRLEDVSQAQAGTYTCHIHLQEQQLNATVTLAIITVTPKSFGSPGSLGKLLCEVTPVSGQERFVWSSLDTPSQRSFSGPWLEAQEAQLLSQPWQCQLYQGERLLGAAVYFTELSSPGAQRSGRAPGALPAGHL
Assay: phage ELISA on coated LAG3

B1: clone 13# as single chain Fv displayed on phage (scFv)
scFv: QVQLQESGGGVVRPGGSLRLSCAASGFTFDDYGMSWVRQAPGKGLEWVSGINWSGGSTYYADSVKGRSTISRDNSKNTLYLQMNSLRAEDTAVYYCATGGYWGQGTLVTVSSSGGSTITSYNVYYTKLSSSGT[gap - about 120 residues]
B1: binds.
